Our source for the cell count values is the supplement of paper PMC4604168 (melanoma cell lines).

SMILES strings stand for the structures. The list shows a part of the results. Single values are uncertain, as repeats are few or missing.
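Also: cells treated in 1,536-well plates, then fixed and DAPI-stained, with nuclei counted from automated high-throughput microscope images.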

For the assay, the system named is SkMel2. The assay can be described thus: cell count relative to DMSO control; melanoma cells; higher = more viable cells. Conditions: library dose: standard library concentration; 72 h.
For `N#CC[C@H](C1CCCC1)n1cc(-c2ncnc3[nH]ccc23)cn1` [ruxolitinib] + NC(=O)Nc1cc(-c2cccc(F)c2)sc1C(=O)N[C@H]1CCCNC1 [AZD7762] (first compound 5 µM, partner dose 0.1 µM), the cell count worked out at 96.7%.
On to `N#CC[C@H](C1CCCC1)n1cc(-c2ncnc3[nH]ccc23)cn1` [ruxolitinib] + O=C(Nc1cccc(Cl)c1)Nc1ncc(CCNc2ncnc3ccsc23)s1 [SNS314] (first compound 5 µM, partner dose 0.004 µM), for which the cell count was 83.9%.
Consider `N#CC[C@H](C1CCCC1)n1cc(-c2ncnc3[nH]ccc23)cn1` [ruxolitinib] + CN(NC(=O)CC(=O)NN(C)C(=S)c1ccccc1)C(=S)c1ccccc1 [STA4783] (first compound 5 µM, partner dose 0.03 µM), for which the cell count was determined as 71.7%.
`N#CC[C@H](C1CCCC1)n1cc(-c2ncnc3[nH]ccc23)cn1` [ruxolitinib] + O=C(CCCCCCC(=O)Nc1ccccc1)NO [vorinostat] (first compound 5 µM, partner dose 0.4 µM) gave a cell count of 87.2%.
`Cc1cc(Nc2cc(N3CCN(C)CC3)nc(Sc3ccc(NC(=O)C4CC4)cc3)n2)n[nH]1` [Tozasertib] + OCCn1cc(-c2cnc3nnn(Cc4ccc5ncccc5c4)c3n2)cn1 [PF04217903] (first compound 0.03 µM, partner dose 5 µM) came in with a cell count of 80%.
Turning to `N#CC[C@H](C1CCCC1)n1cc(-c2ncnc3[nH]ccc23)cn1` [ruxolitinib] + Cc1cc(N2CCOCC2)cc2[nH]c(-c3c(NC[C@@H](O)c4cccc(Cl)c4)cc[nH]c3=O)nc12 [BMS536924] (first compound 5 µM, partner dose 1 µM), the cell count is 91.8%.
The compound `N#CC[C@H](C1CCCC1)n1cc(-c2ncnc3[nH]ccc23)cn1` [ruxolitinib] + C[C@@H]1CCN(C(=O)CC#N)C[C@@H]1N(C)c1ncnc2[nH]ccc12 [CP690550] (first compound 5 µM, partner dose 5 µM) yielded a cell count of 105%.
`CC[C@]1(O)C[C@H]2CN(CCc3c([nH]c4ccccc34)[C@@](C(=O)OC)(c3cc4c(cc3OC)N(C=O)[C@H]3[C@@](O)(C(=O)OC)[C@H](OC(C)=O)[C@]5(CC)C=CCN6CC[C@]43[C@@H]65)C2)C1` [vincristine] + CN(C)S(=O)(=O)c1ccc2c(c1)/C(=C/c1cc3c([nH]1)CCCC3)C(=O)N2 [SU6656] (first compound 0.0005 µM, partner dose 2 µM) displayed a cell count of 29.1%.
On to `N#CC[C@H](C1CCCC1)n1cc(-c2ncnc3[nH]ccc23)cn1` [ruxolitinib] + Cn1c(Nc2ccc(C(F)(F)F)cc2)nc2cc(Oc3ccnc(-c4ncc(C(F)(F)F)[nH]4)c3)ccc21 [CHIR265] (first compound 5 µM, partner dose 0.4 µM), for which the cell count was 56.8%.
Regarding `CC[C@]1(O)C[C@H]2CN(CCc3c([nH]c4ccccc34)[C@@](C(=O)OC)(c3cc4c(cc3OC)N(C=O)[C@H]3[C@@](O)(C(=O)OC)[C@H](OC(C)=O)[C@]5(CC)C=CCN6CC[C@]43[C@@H]65)C2)C1` [vincristine] + Cc1ccc(NC(=O)c2cccc(N(C)C)c2)cc1NC(=O)c1ccc(O)cc1 [ZM336372] (first compound 0.0005 µM, partner dose 10 µM), the cell count turned out to be 74%.
`N#CC[C@H](C1CCCC1)n1cc(-c2ncnc3[nH]ccc23)cn1` [ruxolitinib] + Cc1ccc(NC(=O)c2cccc(N(C)C)c2)cc1NC(=O)c1ccc(O)cc1 [ZM336372] (first compound 5 µM, partner dose 10 µM) gave a cell count of 109%.
The compound `Cc1cc(Nc2cc(N3CCN(C)CC3)nc(Sc3ccc(NC(=O)C4CC4)cc3)n2)n[nH]1` [Tozasertib] + CO[C@@H]1[C@H](N(C)C(=O)c2ccccc2)C[C@H]2O[C@]1(C)n1c3ccccc3c3c4c(c5c6ccccc6n2c5c31)C(=O)NC4 [Midostaurin] (first compound 0.03 µM, partner dose 0.4 µM) came in with a cell count of 42.1%.
Consider `N#CC[C@H](C1CCCC1)n1cc(-c2ncnc3[nH]ccc23)cn1` [ruxolitinib] + COc1cc(Nc2ncc(F)c(Nc3ccc4c(n3)NC(=O)C(C)(C)O4)n2)cc(OC)c1OC [Tamatinib] (first compound 5 µM, partner dose 2 µM), for which the cell count was 68.9%.
`Cc1cc(Nc2cc(N3CCN(C)CC3)nc(Sc3ccc(NC(=O)C4CC4)cc3)n2)n[nH]1` [Tozasertib] + O=C(O)c1ccc(-c2c[nH]c3ncc(-c4ccccc4)cc23)cc1C1CCCC1 [GSK650394] (first compound 0.03 µM, partner dose 0.8 µM) came in with a cell count of 75.4%.
As for `Cc1cc(Nc2cc(N3CCN(C)CC3)nc(Sc3ccc(NC(=O)C4CC4)cc3)n2)n[nH]1` [Tozasertib] + COc1cc(Nc2ncc(F)c(Nc3ccc4c(n3)NC(=O)C(C)(C)O4)n2)cc(OC)c1OC [Tamatinib] (first compound 0.03 µM, partner dose 2 µM), the cell count worked out at 67.9%.
Take `Cc1cc(Nc2cc(N3CCN(C)CC3)nc(Sc3ccc(NC(=O)C4CC4)cc3)n2)n[nH]1` [Tozasertib] + Cn1cncc1[C@@](N)(c1ccc(Cl)cc1)c1ccc2c(c1)c(-c1cccc(Cl)c1)cc(=O)n2C [tipifarnib] (first compound 0.03 µM, partner dose 0.05 µM): the cell count was 79%.
`CC[C@]1(O)C[C@H]2CN(CCc3c([nH]c4ccccc34)[C@@](C(=O)OC)(c3cc4c(cc3OC)N(C=O)[C@H]3[C@@](O)(C(=O)OC)[C@H](OC(C)=O)[C@]5(CC)C=CCN6CC[C@]43[C@@H]65)C2)C1` [vincristine] + NC(=O)Nc1cc(-c2cccc(F)c2)sc1C(=O)N[C@H]1CCCNC1 [AZD7762] (first compound 0.0005 µM, partner dose 0.1 µM) returned a cell count of 74.9%.
As to `Cc1cc(Nc2cc(N3CCN(C)CC3)nc(Sc3ccc(NC(=O)C4CC4)cc3)n2)n[nH]1` [Tozasertib] + CN(C)S(=O)(=O)c1ccc2c(c1)/C(=C/c1cc3c([nH]1)CCCC3)C(=O)N2 [SU6656] (first compound 0.03 µM, partner dose 2 µM), the cell count came out at 68.4%.
The same measure for `N#CC[C@H](C1CCCC1)n1cc(-c2ncnc3[nH]ccc23)cn1` [ruxolitinib] + COc1cc2c(Oc3ccc4[nH]c(C)cc4c3F)ncnc2cc1OCCCN1CCCC1 [cediranib] (first compound 5 µM, partner dose 2 µM): 135%; for `CC[C@]1(O)C[C@H]2CN(CCc3c([nH]c4ccccc34)[C@@](C(=O)OC)(c3cc4c(cc3OC)N(C=O)[C@H]3[C@@](O)(C(=O)OC)[C@H](OC(C)=O)[C@]5(CC)C=CCN6CC[C@]43[C@@H]65)C2)C1` [vincristine] + COc1cc2c(Oc3ccc4[nH]c(C)cc4c3F)ncnc2cc1OCCCN1CCCC1 [cediranib] (first compound 0.0005 µM, partner dose 2 µM): 89.3%.
As to `CC[C@]1(O)C[C@H]2CN(CCc3c([nH]c4ccccc34)[C@@](C(=O)OC)(c3cc4c(cc3OC)N(C=O)[C@H]3[C@@](O)(C(=O)OC)[C@H](OC(C)=O)[C@]5(CC)C=CCN6CC[C@]43[C@@H]65)C2)C1` [vincristine] + O=C(Nc1cccc(Cl)c1)Nc1ncc(CCNc2ncnc3ccsc23)s1 [SNS314] (first compound 0.0005 µM, partner dose 0.004 µM), the cell count came to 53.2%.
